{"source": "paper PMC11612630", "data": [{"target": "T1, SarZ (Staphylococcus epidermidis RP62A) (UniProt Q5HLK8)", "T1 sequence": "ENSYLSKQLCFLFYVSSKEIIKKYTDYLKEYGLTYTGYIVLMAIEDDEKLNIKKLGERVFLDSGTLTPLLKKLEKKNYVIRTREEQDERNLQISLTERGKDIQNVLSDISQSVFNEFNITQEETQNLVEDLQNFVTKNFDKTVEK", "test": "EMSA", "values": [{"sequence": "CTTTTAGCAATAGGTACCTAATAAAAATTATTTATATTTTTCACTATAATAGAGGTTTTTATACATAAATGTTAATTTGATATAAAATCCTATATGTTTATATCAATAAAATAGAGTGCAATACAGTTGTGCATGCCTAACTGTTGTAAAACCTAAGAAAATTAACAGTTAGGAACTCTTAATTATTTAGTATGAAAAATGCAACAAATTGAGTCAAATTAACTTTATAGTAAAGGTAACAAAACGATAGAGATAACGAATCGCAATCGTATCCAA (double strand) [psmβ promoter, 276 bp]", "binding": "binds"}, {"sequence": "GTGCATAGTCCCTAAATTAAAATATCAATGTCTTAAGTGAATGATTCATGTTTTTCACTCAACAGTGAGTTATTCCTAAGTGTTATTTTGTCTTTATACTGTTTACATAAGCTTTACAAAAGGATCTTTGAGTAATTAAGCTTTCAATAATCATTATTATATGATTAATTGAGTCTTATTTTGAGAAGCGTAACCATTGACACTCTTGCTCATTTAAAATATATTAATAGTATTATTCGAAAAGGTAATAACTAAGTCTTGC (double strand) [psmα promoter, 262 bp]", "binding": "binds"}, {"sequence": "TAAACTATTCTCTACTCCGCCCCTCCTGTTAGAGGGGTTTTTTACGTCATTGATTGTACGACGTTGAACATAGCTCAATCAATACTATTCAAAATTCAACTGTGTAAAATGCACTCTTAAAAATGAAGTAGAACTATAGTCATAACGGCAGAATTATAAATAGTATTAGTGAAAGTATTTCTACAACGTTATCAACTTTCATCACAAAAAGACATAAAGATAAAACTGGG (double strand) [psmε promoter, 230 bp]", "binding": "binds"}, {"sequence": "TATAACTTCACTCCTTTCGAATTAAGGTAATGGATACGAATGAATTTAACATTCACTCGACTAGATTAAGCAAATTTTTCAACTATCTTTCAATCACATCTCTGTGATATGAGTCTATTAAAACATGATTTTTCCATTTAAAGATTAAAATTTCGTAAATAGCAATATTTAGTACTCAACTGT (double strand) [psmγ promoter, 183 bp]", "binding": "no binding"}, {"sequence": "TTTCACCTACCTTTCGTTAGTTAGGTTGTAAAGCATATGCTAATCGAAAGTATTTCAATTTGCAATAGAATGTTGTTATACTGAAACAGTAATATTTGTAATTTTAACTTAATTTTTCTGTAATATATTTTTAGAAAATTGAATAAGGGGGAGATTTTAGAATTG (double strand) [ica operon promoter, 165 bp]", "binding": "binds"}]}]}
